# Experimental data from the supplement of paper PMC3334620.
# Whole data set: some 33,000 sequences, median “E-score (-0.5 to 0.5)” near -0.013, cut for the highest 2% near 0.3. The list shows a part of the results.
# Target: T1, Msn1 (UniProt P22148)
# T1 sequence: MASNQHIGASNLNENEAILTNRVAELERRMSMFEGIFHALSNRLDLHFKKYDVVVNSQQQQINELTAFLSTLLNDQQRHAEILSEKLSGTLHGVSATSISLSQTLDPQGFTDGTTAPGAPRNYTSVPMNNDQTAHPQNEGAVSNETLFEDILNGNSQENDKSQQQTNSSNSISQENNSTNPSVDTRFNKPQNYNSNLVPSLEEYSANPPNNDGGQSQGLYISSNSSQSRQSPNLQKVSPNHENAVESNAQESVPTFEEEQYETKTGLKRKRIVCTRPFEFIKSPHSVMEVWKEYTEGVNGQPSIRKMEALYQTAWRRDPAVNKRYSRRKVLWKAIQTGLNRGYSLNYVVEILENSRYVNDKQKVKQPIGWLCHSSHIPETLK
# Experiment: PBM E-score (8-mer binding enrichment) (E-score (-0.5 to 0.5)); higher = stronger / more preferred TF binding; most listed sequences are background and not binding sites
# Conditions: protein concentration: 200 nM; construct: GST-full length
# Procedure, shortened: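 Full-length yeast transcription factors or their DNA-binding domains, GST-tagged and expressed with PURExpress, were applied at about 100-200 nM to universal all-10-mer Agilent arrays. These arrays had been made double-stranded by primer extension on fresh or once-stripped slides. Detection used fluorescent anti-GST, normalisation used masliner, and E-scores for ungapped eight-base words pooled with reverse complements came from the Universal PBM Analysis Suite.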
row,Sequence,PBM E-score
1,TCGACGAA,0.118
2,CGCACCCG,-0.0496
3,GAGCGTGC,-0.0256
4,AGCAGATC,0.0261
5,ATATTTGC,0.111
6,ATCGCAGG,-0.112
7,GGATTCTA,0.102
8,ATTGAGAC,0.235
9,CACTTTAG,-0.143
10,GGATGTAA,0.066
11,ATCTGTTC,-0.117
12,CTCGTAGC,-0.0948
13,AGACGCAA,0.0196
14,AAATAACG,0.104
15,GCAGAGGC,-0.241
16,CGGGCGAG,0.0181
17,ATCGCCTG,0.0274
18,GGGCAGAA,0.0819
19,TGTGCAAA,0.0609
20,CATATCTA,0.157
21,CCGAAATC,0.132
22,CGTCTTAC,-0.095
23,CCCTTACG,-0.0794
24,AGCGGGTA,-0.0997

row,Sequence,PBM E-score
1,GGCTCAAC,-0.206
2,TGTTGGAA,0.198
3,CATGCCCC,-0.119
4,CGTCTCCC,-0.0955
5,AACACGCA,-0.0633
6,AGTACAAT,0.29
7,GCATGCGC,0.0395
8,AGACTTGA,0.0271
9,GACGGTGA,-0.0612
10,CCATTCGA,-0.0308
11,CGTAGAGC,0.0354
12,GCAACCAA,0.0319
13,CTTCCCAC,-0.118
14,ATCGACGG,-0.0525
15,TCAACGCA,0.106
16,GACCCTCC,-0.0933
17,AGAACTAA,0.0859
18,GGAACACC,0.019
19,GGCTCTAC,-0.154
20,TAAGACAA,0.395
21,AAGATGTA,0.037
22,CATAATTA,0.149
23,CTCCGAGC,0.0263
24,ACGGGTTC,-0.0606

row,Sequence,PBM E-score
1,ACCCTAAT,-0.19
2,CGGATCAA,0.0427
3,CCGCCGCA,-0.138
4,CGTCCACA,0.188
5,CTCTCATC,-0.158
6,CCCGGATA,-0.023
7,GGCAAATA,0.0262
8,CATCGGGA,0.192
9,ACACCGAC,0.0822
10,ATGATTTA,0.126
11,GTCCCATA,0.199
12,CAGGAGGG,-0.206
13,CGGACACC,0.112
14,TAGTCTGA,0.0387
15,AGCGGAGC,-0.134
16,GTCCGACA,0.322
17,GGGCGTTA,0.0501
18,TATCACGA,-0.00709
19,ATATAAGG,0.151
20,CCATCAGG,-0.174
21,ACAAACCT,0.1
22,AATTTCAA,0.131
23,GTAAGAAC,0.106
24,CTCGTAAC,-0.0299

row,Sequence,PBM E-score
1,GTATGCTA,-0.168
2,CCGCTAGG,-0.213
3,CACCACAA,0.085
4,GTAATATA,0.191
5,AACCTTCT,-0.205
6,CGGGCACG,-0.161
7,ACTGGGCA,-0.224
8,ACGTCGCA,-0.00026
9,GCGCAATA,-0.0411
10,ATCAGGGG,-0.308
11,GGCACATA,0.0901
12,AGAAGGGC,-0.101
13,GTGTCCCA,0.439
14,AGGTCGAG,-0.177
15,GGAGGCAA,-0.243
16,CAGCGAAC,-0.112
17,CACACACG,0.0525
18,AGAGATAA,0.0317
19,AGTTTTTC,0.0155
20,CGTGGACC,-0.0578
21,AACGCAGA,0.00295
22,ATCGGCTG,0.0357
23,GGGCTGAA,-0.0218
24,ATCGATTC,-0.0167

row,Sequence,PBM E-score
1,CGTTGCCA,0.0653
2,CCCTTTTA,-0.00272
3,CGGACTAG,0.0298
4,GCCATACC,-0.187
5,TCGTCAGA,-0.0483
6,GGCGAGGA,-0.0575
7,AGGATAGG,-0.0752
8,GAGTTATA,-0.0595
9,GCGGCAAC,-0.145
10,ACATGCGA,0.0948
11,GCTATCCA,-0.146
12,GCGAGAGA,-0.11
13,CGTTAGAG,-0.0334
14,ATGTGGTA,0.0238
15,GAGGACAC,0.398
16,ACCTCCAC,-0.239
17,ACTGATCT,-0.0345
18,CAGCACTC,-0.0524
19,ATCGGGTC,0.0173
20,ATTCTTAA,0.00993
21,CCGGGAAC,-0.0326
22,CCCTTGCC,-0.258
23,CATCGCCG,-0.132
24,ACCCCTTC,-0.234

row,Sequence,PBM E-score
1,CCACCGGC,-0.226
2,GATTTTGC,-0.129
3,GCGACACC,-0.0671
4,CGTCTTTA,0.125
5,CGAATTGC,0.0894
6,AGGTACCG,-0.085
7,GGACTATA,-0.0918
8,GAATCTGC,-0.134
9,TCGCGGAA,0.118
10,CCGACCGA,-0.117
11,CTACCCCC,-0.397
12,GAGCCGCA,-0.165
13,ATTAGCAC,-0.0652
14,GGACTGCC,-0.185
15,ACAGCGCA,-0.0465
16,ATACGGAT,-0.0481
17,ATCCGGCG,0.0331
18,AGTTTACA,0.0257
19,AGCTACAG,-0.256
20,AAATCCAT,0.12
21,ATGTGAAT,0.023
22,CCAAGCGC,0.00958
23,AAAGAAGC,0.0953
